Out of some 39,000 compounds screened, about 220 (0.56%) showed activity. Some of the results follow.
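Note: static incubation at 37 °C against the wild-type strain, values averaged over two biological replicates.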

The test system of this experiment is Escherichia coli K-12 BW25113. The experiment can be described thus: relative growth (OD600 normalised to plate interquartile mean) (fraction); higher = less growth inhibition, active = 0.2 or less. Particulars: 50 µM; LB; incubation time: overnight (16-24 h).
For the molecule `C[C@H](CO)N1C[C@H](C)[C@@H](CN(C)S(=O)(=O)c2ccc(F)cc2)Oc2cc(Br)ccc2S1(=O)=O`, the relative growth is inactive: 1.01.
As for `COc1ccc(S(=O)(=O)Nc2ccc3c(c2)C(=O)N([C@H](C)CO)C[C@H](C)[C@H](CN(C)Cc2ccc(C(=O)O)cc2)OCCCC[C@H](C)O3)cc1`, the relative growth was inactive: 1.
As to `CCOC(=O)c1cccnc1N`, the relative growth was inactive: 0.899.
Take `C[C@@H]1CN([C@H](C)CO)C(=O)c2cc(C#Cc3ccncc3)cnc2O[C@H]1CN(C)C(=O)c1ccccc1F`: the relative growth is inactive: 0.994.
Regarding `CO[C@@H](CN(C)S(=O)(=O)c1ccc(C)cc1)[C@@H](C)CN([C@H](C)CO)S(=O)(=O)c1cccc(Cl)c1`, the relative growth is inactive: 1.03.
As to `O=C1OCC=C[C@H]2O[C@@]34C=CCN(c5ccc6ccccc6c5)C(=O)[C@H]3N(CCCCCCO)C(=O)[C@@H]4[C@@H]12`, the relative growth was inactive: 1.
The value for `CCCN(C)C[C@@H]1OCCCC[C@@H](C)Oc2ccc(NS(=O)(=O)c3ccc(Cl)cc3)cc2C(=O)N([C@@H](C)CO)C[C@@H]1C` was inactive: 0.992.
Take `Cc1ccc(S(=O)(=O)Nc2cccc3c2O[C@@H](CN(C)S(=O)(=O)c2ccccc2)[C@H](C)CN([C@H](C)CO)C3=O)cc1`: the relative growth was inactive: 0.9.
Regarding `OC[C@H]1O[C@@H](O)[C@@H](O)[C@@H](O)[C@@H]1O`, the relative growth is inactive: 1.
As to `Cc1noc(C)c1NC(=O)N(C)C[C@H]1Oc2ccc(NS(C)(=O)=O)cc2CC(=O)N([C@H](C)CO)C[C@@H]1C`, the relative growth was inactive: 0.995.
The value for `C[C@@H]1CN([C@@H](C)CO)C(=O)c2cc(NC(=O)CCCN(C)C)ccc2O[C@@H](C)CCCCO[C@H]1CN(C)Cc1ccc(C(F)(F)F)cc1` was inactive: 0.972.
Consider `COc1cc2c(N3CCN(C(=O)Nc4ccc(OC(C)C)cc4)CC3)ncnc2cc1OCCCN1CCCCC1`, for which the relative growth was inactive: 0.988.
The value for `C[C@@H]1CCCCO[C@@H](CN(C)Cc2ccc(C(F)(F)F)cc2)[C@H](C)CN([C@@H](C)CO)C(=O)c2cc(NS(=O)(=O)c3cn(C)cn3)ccc2O1` was inactive: 1.01; that for `CC(=O)N[C@@H](CC(C)C)C(=O)O` was inactive: 0.957.
As to `C[C@H](CO)N1C[C@H](C)[C@@H](CN(C)Cc2ccc(-c3ccccc3)cc2)Oc2c(NC(=O)c3ccncc3)cccc2C1=O`, the relative growth was inactive: 1.03.
With `C[C@@H]1CN([C@H](C)CO)C(=O)c2cccc(NS(C)(=O)=O)c2O[C@H]1CN(C)Cc1ccc(C(=O)Nc2ccccc2N)cc1`, the relative growth was inactive: 0.998.
`COc1ccc(NC(=O)Nc2ccc3c(c2)C(=O)N([C@@H](C)CO)C[C@H](C)[C@@H](CN(C)Cc2ccc(C(F)(F)F)cc2)O3)cc1`: the relative growth is inactive: 1.04.
`C[C@@H]1CN([C@@H](C)CO)C(=O)c2cc(NC(=O)Nc3cccc4ccccc34)ccc2O[C@@H]1CN(C)Cc1ccccc1`: the relative growth was inactive: 1.07.
On to `CCCCc1ccc(CC(=O)O)cc1`, for which the relative growth was inactive: 0.986.
`Cc1ccc2sc(C)nc2c1`: the relative growth was inactive: 0.989.
In the case of `C[C@H](CO)N1C[C@H](C)[C@@H](CN(C)Cc2ccccc2)Oc2c(NS(=O)(=O)c3cn(C)cn3)cccc2C1=O`, the relative growth is inactive: 0.986.
Take `O=C(NO)c1cccc(C(=O)N/N=C/[C@H](O)[C@@H](O)[C@H](O)[C@H](O)CO[C@H]2O[C@H](CO)[C@H](O)[C@H](O)[C@H]2O)c1`: the relative growth is inactive: 0.943.
The value for `C[C@H](CO)N1C[C@H](C)[C@H](CN(C)S(=O)(=O)c2ccc(Cl)cc2)Oc2ccc(NC(=O)Nc3cccc4ccccc34)cc2C1=O` was inactive: 0.986; that for `C[C@@H]1CN([C@@H](C)CO)S(=O)(=O)c2ccc(C#Cc3ccncc3)cc2O[C@H]1CN(C)C(=O)Nc1ccc2c(c1)OCO2` was inactive: 0.997; that for `C[C@H]1CN([C@@H](C)CO)C(=O)Cc2cc(NS(=O)(=O)c3ccc(F)cc3)ccc2O[C@@H]1CN(C)S(=O)(=O)c1cccs1` was inactive: 0.994.
With `C[C@@H]1CN([C@@H](C)CO)C(=O)c2cccc(NS(C)(=O)=O)c2O[C@H]1CN(C)C(=O)Nc1ccc(C(F)(F)F)cc1`, the relative growth is inactive: 0.952.
Then `COC1=C(O)C(=O)c2c(cc3oc(C(C)=O)c(O)c3c2O)C1=O`, with inactive: 1.07.
Take `O=C(C1=C[C@@H](c2coc3ccccc3c2=O)C[C@@H](OCCCCO)O1)N1CCN(Cc2ccc3c(c2)OCO3)CC1`: the relative growth is inactive: 0.99.
For `CN(C)C(=O)C[C@H]1CC[C@H](NC(=O)C2CC2)[C@H](CO)O1`, the relative growth was inactive: 1.01.
`CC(C)NC(=O)Nc1ccc2c(c1)CC(=O)N([C@@H](C)CO)C[C@H](C)[C@H](CN(C)Cc1ccc(C(=O)O)cc1)O2`: the relative growth is inactive: 0.99.
With `Cc1noc(C)c1NC(=O)Nc1ccc2c(c1)CC(=O)N([C@@H](C)CO)C[C@H](C)[C@H](CN(C)Cc1ccc(-c3ccccc3)cc1)O2`, the relative growth is inactive: 0.973.
As for `CCCCS(=N)(=O)CC[C@@H](N)C(=O)O` (stereo partly specified), the relative growth is inactive: 1.01.
Consider `CCNC(=O)C[C@@H]1CC[C@H]2[C@@H](COc3ccc(NS(=O)(=O)c4ccccc4C)cc3C(=O)N2C)O1`, for which the relative growth is inactive: 0.976.
For the molecule `C=C1C2CCC3(C)C(c4ccoc4)OC(=O)CC13OC1CC(=O)C(C)(C)C(C(O)C(=O)OC)C12C` (stereo unspecified), the relative growth was inactive: 1.14.
On to `O=C(C[C@@H]1CC[C@H]2NC[C@H](O)COC[C@@H]2O1)NCCN1CCCCC1`, for which the relative growth was inactive: 0.993.
On to `CCC(=O)N1CCN=C1SC`, for which the relative growth is inactive: 1.02.
For `C[C@@H]1CN([C@@H](C)CO)C(=O)c2cc(NC(=O)Nc3ccc4c(c3)OCO4)ccc2O[C@@H](C)CCCCO[C@H]1CN(C)Cc1ccc(C(F)(F)F)cc1`, the relative growth was inactive: 0.972.
Regarding `C[C@@H]1CN([C@H](C)CO)C(=O)c2cccc(NC(=O)c3ccncc3)c2O[C@@H]1CN(C)S(=O)(=O)c1cccs1`, the relative growth is inactive: 0.973.
Consider `O=C(O)CCc1n[nH]c(=S)[nH]c1=O`, for which the relative growth was inactive: 0.947.
For `C[C@H]1CN([C@@H](C)CO)C(=O)c2cc(NC(=O)CCC(F)(F)F)ccc2O[C@H]1CN(C)C(=O)Nc1cccc2ccccc12`, the relative growth is inactive: 0.997.
On to `C[C@@H]1CN([C@@H](C)CO)C(=O)c2cccc(NS(=O)(=O)c3cn(C)cn3)c2O[C@H]1CN(C)Cc1ccncc1`, for which the relative growth was inactive: 1.
